Among the targets are BCMA 102 x CD3; BCMA-107 x CD3; BCMA 101 x CD3; BC 247-C3 x CD3.
What all share (test): SPR (Biacore)
A general note: In SPR one partner is held on a chip, and binding of the other changes the refractive index at the surface.

One may read the Kd as a measure of binding affinity in units of concentration. The low end stands for tighter binding, the high end for weaker binding.

B1: Macaque BCMA (receptor)
chain (part 1 of 2): [about 60 residues omitted]NASGGGGSEAHKSEIAHRYNDLGEQHFKGLVLIAFSQYLQKCSYDEHAKLVQEVTDFAKTCVADESAANCDKSLHTLFGDKLCAIPNLRENYGELADCCTKQEPERNECFLQHKDDNPSLPPFERPEAEAMCTSFKENPTTFMGHYLHEVARRHPYFYAPELLYYAEQYNEILTQCCAEADKESCLTPKLDGVKEKALVSSVRQRMKCSSMQKFGERAFKAWAVARLSQTFPNADFAEITKLATDLTKVNKECCHGDLLECADDRAELAKYMCENQATISSKLQTCCDKPLLKKAHCLSEVEHDTMPADLPAIAADFVEDQEVCKNYAEAKDVFLGTFLYEYSRRHPDYSVSLLLRLAKKYEATLEKCCAEANPPACYGTVLAEFQPLVEEPKNLVKTNCDLYEKLGEYGFQNAILVRYTQKAPQVSTPTLVEAARNLGRVGTKCCTLPEDQRLPCVEDYLSAILNRVCLLHEKTPVSEHVTKCCSGSLVERRPCFSALTVDETYVPKEFKAETFTFHSDICTLPEKEKQIKKQTALAELVKHKPKATAEQLKTVMDDFAQFLDTCCKAADKDTCFSTEGPNLVTRCKDALA
chain (part 2 of 2): SGHHGGHHGGHH
As for B1, the Kd with BCMA 102 x CD3 came to 0.3 nM; in the experiment with BCMA-107 x CD3, 11.7 nM; with BCMA 101 x CD3, 0.8 nM; in the experiment with BC 247-C3 x CD3, 0.6 nM.

Source of the values: US20160176973A1 (published 2016).
